Test results taken from PubChem BioAssay AID485344 (National Center for Advancing Translational Sciences (NCATS), 2010).
Several values for one entry are separate records, joined by “and”; a condition that tells them apart may be missing. Equal entries are not always repeated. The campaign covered roughly 340,000 compounds. About 6,900 (2%) were called active. Cut-off read from the data, not from the text of the source: active = inhibition above about 30%; inactive = below that, where a call was filed. The entries are a selection whose mix differs from that of the whole data set. Entries without a call were filed so in the source.

Target: D(2) dopamine receptor (Homo sapiens) (UniProt P14416)
Chain of UniProt P14416 (P14416 whole entry, looked up): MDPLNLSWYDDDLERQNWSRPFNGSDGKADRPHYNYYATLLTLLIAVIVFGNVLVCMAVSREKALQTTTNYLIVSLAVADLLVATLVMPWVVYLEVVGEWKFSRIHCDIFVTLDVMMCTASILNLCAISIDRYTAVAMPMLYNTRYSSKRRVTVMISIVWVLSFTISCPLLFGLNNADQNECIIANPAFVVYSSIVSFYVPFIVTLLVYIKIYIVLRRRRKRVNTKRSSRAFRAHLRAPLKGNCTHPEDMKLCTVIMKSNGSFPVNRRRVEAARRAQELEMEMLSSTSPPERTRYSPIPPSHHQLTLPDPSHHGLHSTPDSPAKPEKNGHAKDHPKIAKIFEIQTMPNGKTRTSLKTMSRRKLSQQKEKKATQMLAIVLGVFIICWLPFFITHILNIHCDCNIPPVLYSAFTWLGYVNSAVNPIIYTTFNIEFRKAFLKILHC
Assay: HTS Assay for Allosteric Antagonists of the Human D2 Dopamine Receptor: Primary Screen for Antagonists; note: 0% is about no effect
Conditions: HEK293 TREx D2 cells, calcium flux, dopamine EC80; at 10 µM; stronger effect = higher value
How it was run: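 Tetracycline-induced HEK293 TREx cells expressing D2 receptor forced-coupled to calcium signalling, loaded with no-wash calcium dye. Compounds added and calcium flux read 180 s, then dopamine added at EC80 and read a further 180 s.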

SMILES	inhibition
COc1cc2nc(NCC(C)c3ccccc3)n3nc(-c4ccccc4)nc3c2cc1OC (stereo unspecified)	-5.19%
CCOc1nc(NC(=O)NS(=O)(=O)Oc2ccccc2Cl)nc(-c2ccccc2)n1	9.22%
CNC(=O)c1ccc(Nc2nnc(-c3ccc(C)c(S(=O)(=O)N4CCOCC4)c3)c3ccccc23)cc1	-3.15%
CCOC(=O)c1ccccc1NC(=O)N(Cc1ccco1)C1CCN(C(C)=O)CC1	-7.49%
Cc1ccc(NC(=O)c2ccc(Br)cc2)c(C(=O)c2ccccc2)c1	27.9%
Cc1nc2nc(SCC(=O)NCc3ccccc3)nn2c(C)c1Cc1ccccc1	-1.68%
CC(C)CC(=O)Nc1ccc(Cl)c(-c2nc3ccccc3[nH]2)c1	15.9%
COc1ccc(OC)c(CNC(=O)CN2C(=O)CCn3nc(-c4cn(C)c5ccccc45)cc32)c1	-17.3%
N#Cc1ccc(NS(=O)(=O)c2ccc(-c3cnc(C4CC4)o3)cc2)cc1	26.4%
Cc1nc2cc(C(=O)O)ccc2n1-c1ccc(C(C)C)cc1	-4.25%
CCOC(=O)c1sc(NC(=O)c2cc3nc(-c4ccc(Br)cc4)cc(C(F)(F)F)n3n2)c(C(=O)OCC)c1C	11.7%
CCOC(=O)CCn1nc(C)c2c(C)n(-c3ccccc3)nc2c1=O	11.2%
Cc1cccc(N2CCN(C(=O)Cn3c(=O)c4cccn4c4ccc(F)cc43)CC2)c1C	12.5%
COc1ccccc1C(=O)NC(=O)Nc1ccc(-n2nc(C(F)(F)F)cc2C(F)(F)F)cc1	3.2%
Cc1ccc(N2CC(NC(=O)CCc3ccccc3)CC2=O)cc1 (stereo unspecified)	15.8%
COc1cccc(CSc2nc3n(n2)C(c2cccnc2)C(C(=O)Nc2ccccc2C)=C(C)N3)c1 (stereo unspecified)	14.9%
COc1ccc(-c2ccc3c(N)c(C(=O)Nc4cccc(C)c4)sc3n2)cc1	2.43%
O=C(NCCN1CCN(c2ccccc2)CC1)c1cccc(Cl)c1	active: 70.4%
CC1=C(C(=O)NCc2ccc(Cl)cc2)C2(CCCCCC2)OC1=O	1.95%
CCN(CC(=O)Nc1cc(Cl)ccc1C)C(=O)C1CC1	active: 55.7%
COc1ccccc1C(=O)Nc1ccc(C(=O)OCc2cc(=O)n3ccsc3n2)cc1	7.19%

SMILES	inhibition
Cc1ccc(NC(=O)c2cc(S(=O)(=O)NC3CCCCCC3)ccc2F)cc1F	-23.2%
CCOc1ccc(-c2nnc(SCC(=O)NCc3ccc(Cl)cc3)o2)cc1	25.5%
COc1ccc2[nH]cc(CCN=C(NC(=O)c3cccc(Cl)c3)Nc3nc(C)cc(C)n3)c2c1	-19.8%
C=C1C(=O)C=C[C@]2(C)C[C@@H]3OC(=O)[C@](C)(O)[C@H]3C[C@@H]12	active: 36.7%
O=C(CCN1CCN(c2ccccc2)CC1)Nc1nccs1	active: 92.6%
O=C(Nc1ccc(Br)cc1)c1cc2nc(-c3ccccc3)cc(-c3ccccc3)n2n1	0.176%
CCOC(=O)C1CCCN(C(=O)Cn2c(=O)cc(C)c3c(C)nn(C)c32)C1 (stereo unspecified)	9.78%
COc1ccc(C(=O)c2cnc3ccc(C)cc3c2S(=O)(=O)c2ccccc2)cc1	0.14%
COc1ccc(S(=O)(=O)N2CCC(C(=O)NC(C)c3ccccc3)CC2)cc1 (stereo unspecified)	-26.9%
Cc1ccc(CN2C(=O)C(O)(CC(=O)c3ccc(C)cc3)c3ccccc32)cc1 (stereo unspecified)	9.51%
CC(C)n1nnnc1SCC(=O)N1N=C(c2cccs2)CC1c1cccs1 (stereo unspecified)	active: 38.7%
CCc1ccccc1NC(=O)CC(C)S(=O)(=O)c1ccc2c(c1)NC(=O)CO2 (stereo unspecified)	-15.7%
CCc1ccc2occ(CC(=O)Nc3nnc(C)s3)c2c1	7.17%
O=C(CSc1nc2c([nH]c3ccccc32)c(=O)n1-c1ccccc1)NCc1ccc(F)cc1	19.1%
CCNC(=O)C1CCN(c2nc3ccccc3nc2C(F)(F)F)CC1	-11.2%
O=C(CN1C(=O)C2(SCC(=O)N2c2ccccc2)c2ccccc21)Nc1ccccc1C(F)(F)F (stereo unspecified)	6.25%
CCOc1ccc(NC(=O)Cn2cc(S(=O)(=O)c3ccc(C)cc3)c(=O)c3cc(F)ccc32)cc1	21.6%
CC(=O)c1nn(-c2ccc(OC(F)(F)F)cc2)nc1Nc1ccc(Cl)cc1	6.84%
CN1CCN(c2oc(-c3ccccc3Cl)nc2S(=O)(=O)c2ccccc2)CC1	active: 78.6%
COc1cc(CN(C(=O)COc2ccc(Cl)cc2)c2ccccn2)cc(OC)c1OC	5.5%
Cc1ccc(C)c(NC(=O)C2CCN(c3ncnc4c3nc3n4CCCCC3)CC2)c1	3.09%

SMILES	inhibition
COc1ccc(OC)c(C2=NS(=O)(=O)N(C)C(C(=O)Nc3ccc(C(C)=O)cc3)=C2)c1	6.19%
CN(C(=O)Nc1ccccc1)C1CCCc2ccccc21 (stereo unspecified)	active: 30.4%
CCN1CCN(C(=O)c2oc(=O)c3ccccc3c2-c2ccc(C)cc2)CC1	active: 59.2%
Cc1cccc(C)c1NC(=O)NCCCN1CCN(c2ccccc2)CC1	-6.7% and active: 72.4%
CC(C)(C)c1ccc(C(=O)NNc2ncnc3c2cnn3-c2ccc(Cl)cc2)cc1	0.982%
O=C(CSc1ccccc1)N1CCc2c([nH]c3ccccc23)C1c1ccc(Cl)cc1 (stereo unspecified)	-10.1%
Cc1cccc(S(=O)(=O)c2cn(C)c3cc(N4CCCCCC4)c(F)cc3c2=O)c1	-1.66%
COc1cccc(C(=O)c2cn(CC(=O)Nc3cc(Cl)c(OC)cc3OC)c3nc(C)ccc3c2=O)c1	4.69%
COc1ccc(NC(=O)Cn2nc3c(cc2=O)CCCC3)cc1Cl	-10.3%
CCCCc1nn2c(=O)cc(CN(CC)c3ccccc3)nc2s1	-3.93%
Cc1nc(N2CCCC2)ncc1C(=O)NCc1ccc(Cl)cc1	20.3%
CC1=C(c2ccc(F)cc2)S(=O)(=O)N=C1N1CCC(C(=O)NCCc2ccccc2)CC1	8.49%
COc1ccccc1N1CCN(S(=O)(=O)c2ccc(-c3ccno3)cc2OC)CC1	27.7%
O=C(NCc1ccc(Cl)cc1)c1cc2ccc3cccnc3c2[nH]1	18.8%
CC(C)c1ccc(Cc2cn3cc(-c4cc5ccccc5oc4=O)nc3s2)cc1	-1.47%
Cc1ccc(NC(=O)NCCOCCn2c(=O)oc3ccccc32)c(C)c1	7.57%
Cc1ccccc1C(=O)Nc1sc2c(c1C(=O)O)CCC(C(C)(C)C)C2 (stereo unspecified)	4.52%
Cc1ccc(C2C(=O)N(C3CCCCCC3)CC(=O)N2C(C)C)cc1 (stereo unspecified)	-4.2%
O=C(CSc1nc2c([nH]c3ccccc32)c(=O)n1-c1ccc(F)cc1)NCC1CCCO1 (stereo unspecified)	-11%
